Laboratory results taken from ChEMBL document CHEMBL4888484, “Replenishing the malaria drug discovery pipeline: Screening and hit evaluation of the MMV Hit Generation Library 1 (HGL1) against asexual blood stage Plasmodium falciparum ,using a nano luciferase reporter read-out” (2022).
Screen size: about 150,000 compounds; about 540 (0.36%) showed an effect of 50% or more. This is one part of the list.

test system: Plasmodium falciparum; experiment: Primary screen in NF54 nanoGlo assay, in single point, at 2uM, 72h; a lower Z score goes with more inhibition; assay type: functional, Erythrocyte; details: timepoint 72 hour

First: COCCc1noc([C@H](C)NC(=O)c2cc(CC(C)C)[nH]c(=O)n2)n1
Second: COCc1noc(CNC(=O)Nc2ccnn2C[C@@H]2CC=CCC2)n1
The “% Inhibition” value of the first is lower: -11% for the first, -3% for the second.

First: CO[C@@](C)(CNC(=O)c1ccnc(C2CC2)c1)C1CC1
Second: CC(=O)NC[C@H]1CN(c2ccnc(C(C)(C)C)n2)CCO1
The “% Inhibition” value of the first is higher: -9% for the first, -12% for the second.

First: CCn1nnc(C)c1CN[C@H]1CCCc2c(F)cc(F)cc21
Second: C[C@@H](N)c1nc(-c2ccc(F)c(F)c2)nn1CC(C)(C)O
The “% Inhibition” value of the first is higher: 1% for the first, -6% for the second.

Compared with CCc1nc(CN[C@@H](CC)c2ccc3c(c2)CCO3)cs1, CC[C@@H](CO)N(Cc1ccc(C)s1)C(=O)c1ccnn1C(F)F is higher in “% Inhibition” value: -14% for the first, -1% for the second.

Going from O=C(CNc1cc(S(=O)(=O)N2CCCCC2)ccc1Oc1ccc(Cl)cc1)N1CCNC1=O to O=C(NCc1ccc(F)cc1)C1C2CCC(C2)N1S(=O)(=O)c1ccc2c(c1)OCCO2 (stereo unspecified), the “% Inhibition” value falls from 6% to -5%.

Going from O=C(C[C@H]1COc2ccccc2N1)NCc1ccc2c(c1)OCO2 to O=C(c1cc2nc(-c3ccc4c(c3)OCO4)cc(C(F)(F)F)n2n1)N1CCN(c2ccccc2Cl)CC1, the “% Inhibition” value rises from -14% to -7%.

Going from NC(=O)NC(Cc1ccccc1)C(=O)NC1CCCN(c2ccccc2F)C1 (stereo unspecified) to O=C(c1ccco1)N1CC[C@H](S(=O)(=O)c2ccccc2)C1, the “% Inhibition” value falls from -1% to -14%.

First: COCCc1nncn1C1CN(Cc2cccc(Cl)c2)C1
Second: OCCn1nc(Cc2cccc(Cl)c2)nc1CN1CCCCCC1
The “% Inhibition” value of the first is higher: -2% for the first, -8% for the second.

Going from O=S(=O)(c1cn[nH]c1)N1CCN(CC(F)(F)F)CC1 to O=C(c1ccnn1CC(F)(F)F)N1CCc2ncccc21, the “% Inhibition” value rises from -9% to -7%.

Going from Cc1ccc2[nH]cc(-c3ncccc3C(=O)N3CCCC3)c2c1 to Cc1ccncc1CC(=O)N1CCC[C@H](Nc2cccc(Br)c2)C1, the “% Inhibition” value falls from -1% to -12%.

Going from C[C@H](NC(=O)Cn1cnc(C#N)n1)c1ccco1 to CC(=O)c1cc(C(=O)[C@H](C#N)c2ccccn2)n(C)c1, the “% Inhibition” value falls from 9% to -7%.

Compared with O=C1NC[C@@H](C2CCCCCC2)C(=O)N1Cc1cnn(CCF)c1, Cc1ccc(NC(=O)CN(C)C2CCCCCC2)c(Br)c1 is higher in “% Inhibition” value: -11% for the first, 0% for the second.

Compared with NC(=O)c1cncc(N2CC[C@@]3(CCCN(CCc4ccccc4)C3)C2)n1, COc1ccc(F)c(CN2CCC[C@@]3(CCN(C(=O)C4CCCC4)C3)C2)c1 is higher in “% Inhibition” value: -6% for the first, -2% for the second.

Compared with COc1ccc(-c2cc(C(F)F)nc(N3CCC(C(=O)O)CC3)n2)cc1OC, Cc1ccc(C)c([C@@H]2CC(=O)Nc3nc(N4CCN(CCO)CC4)nc(O)c32)c1 is higher in “% Inhibition” value: -49% for the first, -7% for the second.

Going from O=C(Nc1ccccc1Cc1ccccc1)C1=NN(c2ccccc2)C(=O)CC1 to Cc1ccccc1-c1cccc(C(=O)N2CCC3(CCC(=O)N(C)C3)CC2)c1, the “% Inhibition” value falls from 2% to -9%.

Going from CN1CCN(C)[C@@H](CC(=O)N(C)Cc2nc3ccccc3o2)C1 to COC(=O)C[C@@H]1Oc2ccccc2N(Cc2cncs2)C1=O, the “% Inhibition” value rises from -12% to -11%.

First: CCN(CC(=O)NC)C(=O)CN(C)S(=O)(=O)c1ccc(C#N)cc1
Second: CNc1ncccc1CN(C)CCOc1cc(C)ccc1C
The “% Inhibition” value of the first is higher: 4% for the first, -5% for the second.

Compared with O=C(NCC12CCCCC1C2)C1CCc2nncn2CC1 (stereo unspecified), C[C@H]1CCCN(C(=O)CS(=O)(=O)c2cccc(Cl)c2)C1 is higher in “% Inhibition” value: -5% for the first, -4% for the second.

Going from Cc1cccc(CNC(=O)NCc2cc[nH]n2)c1Br to COC(=O)[C@@H](C)CS(=O)(=O)Nc1cnoc1-c1ccccc1, the “% Inhibition” value falls from 27% to 0%.

Compared with CS(=O)(=O)NCCc1ccsc1, CCO[C@H]1CCCN(S(=O)(=O)c2ccc3c(c2)CCC(=O)N3)C1 is higher in “% Inhibition” value: -9% for the first, -1% for the second.

Compared with COc1cc(-c2nc(CN(C)[C@@H](C)c3ccon3)c(C)o2)ccc1F, COc1cccc(-c2nccn2[C@@H](C)Cc2cc(C)n[nH]2)c1OC is higher in “% Inhibition” value: 3% for the first, 6% for the second.

First: O=C(COc1ccccc1)Nc1nnc([C@@H]2CCCO2)o1
Second: O=C(c1ccccn1)N1CC(N2C(=O)COC2=O)C1
The “% Inhibition” value of the first is lower: 0% for the first, 23% for the second.

Going from O=C(CCCN1CCC2(CC1)c1ccccc1C[C@@H]2O)c1ccc(F)cc1 to COc1ccc(/N=C2/[C@@H](N3CCN(C)CC3)C3(CCCCC3)C(=O)N2c2ccccc2)cc1, the “% Inhibition” value falls from -5% to -29%.

First: CCn1nc(C)cc1S(=O)(=O)N1CC[C@]23C(=O)N(CC(=O)NCCCOc4cccc(c4)[C@H]12)c1ccccc13
Second: C#CCC(NS(=O)(=O)c1ccc(OC)c(C2(C)NC(=O)NC2=O)c1)c1ccccc1 (stereo unspecified)
The “% Inhibition” value of the first is lower: -7% for the first, 11% for the second.

Compared with O=C(c1cccs1)N1CCCn2cc(-c3ccccc3F)nc21, Cc1cncnc1C1CCN(C(=O)c2ccc(C#N)nc2)CC1 is lower in “% Inhibition” value: -10% for the first, -20% for the second.

Going from COCC(C)S(=O)(=O)N1CCOC(C2CCC2)C1 (stereo unspecified) to CC(C)=CC1C(C(=O)N2CCC(CN(C)C(C)C)CC2)C1(C)C (stereo unspecified), the “% Inhibition” value falls from 12% to -17%.

With C[C@H]1CN(C(=O)C2(C#N)CCC2)CCN1C(=O)C1(C#N)CCC1 the “% Inhibition” value was -10%.

Going from COCCc1noc([C@H](C)NC(=O)c2cc(CC(C)C)[nH]c(=O)n2)n1 to COCc1noc(CNC(=O)Nc2ccnn2C[C@@H]2CC=CCC2)n1, the Z score falls from 1.67 to 0.4.

Compared with CO[C@@](C)(CNC(=O)c1ccnc(C2CC2)c1)C1CC1, CC(=O)NC[C@H]1CN(c2ccnc(C(C)(C)C)n2)CCO1 is higher in Z score: 0.95 for the first, 1.4 for the second.

First: CCn1nnc(C)c1CN[C@H]1CCCc2c(F)cc(F)cc21
Second: C[C@@H](N)c1nc(-c2ccc(F)c(F)c2)nn1CC(C)(C)O
The Z score of the first is lower: -0.24 for the first, 0.89 for the second.

Compared with CCc1nc(CN[C@@H](CC)c2ccc3c(c2)CCO3)cs1, CC[C@@H](CO)N(Cc1ccc(C)s1)C(=O)c1ccnn1C(F)F is lower in Z score: 1.14 for the first, 0.13 for the second.

Compared with O=C(CNc1cc(S(=O)(=O)N2CCCCC2)ccc1Oc1ccc(Cl)cc1)N1CCNC1=O, O=C(NCc1ccc(F)cc1)C1C2CCC(C2)N1S(=O)(=O)c1ccc2c(c1)OCCO2 (stereo unspecified) is higher in Z score: -0.67 for the first, 0.87 for the second.

Compared with O=C(C[C@H]1COc2ccccc2N1)NCc1ccc2c(c1)OCO2, O=C(c1cc2nc(-c3ccc4c(c3)OCO4)cc(C(F)(F)F)n2n1)N1CCN(c2ccccc2Cl)CC1 is lower in Z score: 2.51 for the first, 0.76 for the second.

First: NC(=O)NC(Cc1ccccc1)C(=O)NC1CCCN(c2ccccc2F)C1 (stereo unspecified)
Second: O=C(c1ccco1)N1CC[C@H](S(=O)(=O)c2ccccc2)C1
The Z score of the first is lower: 0.16 for the first, 2.37 for the second.

First: COCCc1nncn1C1CN(Cc2cccc(Cl)c2)C1
Second: OCCn1nc(Cc2cccc(Cl)c2)nc1CN1CCCCCC1
The Z score of the first is lower: 0.38 for the first, 1.08 for the second.

Compared with O=S(=O)(c1cn[nH]c1)N1CCN(CC(F)(F)F)CC1, O=C(c1ccnn1CC(F)(F)F)N1CCc2ncccc21 is higher in Z score: 1.12 for the first, 1.4 for the second.

Going from Cc1ccc2[nH]cc(-c3ncccc3C(=O)N3CCCC3)c2c1 to Cc1ccncc1CC(=O)N1CCC[C@H](Nc2cccc(Br)c2)C1, the Z score rises from 0.09 to 1.67.

First: C[C@H](NC(=O)Cn1cnc(C#N)n1)c1ccco1
Second: CC(=O)c1cc(C(=O)[C@H](C#N)c2ccccn2)n(C)c1
The Z score of the first is lower: -0.83 for the first, 1.01 for the second.

Compared with O=C1NC[C@@H](C2CCCCCC2)C(=O)N1Cc1cnn(CCF)c1, Cc1ccc(NC(=O)CN(C)C2CCCCCC2)c(Br)c1 is lower in Z score: 2.02 for the first, -0.05 for the second.

Compared with NC(=O)c1cncc(N2CC[C@@]3(CCCN(CCc4ccccc4)C3)C2)n1, COc1ccc(F)c(CN2CCC[C@@]3(CCN(C(=O)C4CCCC4)C3)C2)c1 is lower in Z score: 0.84 for the first, 0.2 for the second.

First: COc1ccc(-c2cc(C(F)F)nc(N3CCC(C(=O)O)CC3)n2)cc1OC
Second: Cc1ccc(C)c([C@@H]2CC(=O)Nc3nc(N4CCN(CCO)CC4)nc(O)c32)c1
The Z score of the first is higher: 5.71 for the first, 1.12 for the second.

First: O=C(Nc1ccccc1Cc1ccccc1)C1=NN(c2ccccc2)C(=O)CC1
Second: Cc1ccccc1-c1cccc(C(=O)N2CCC3(CCC(=O)N(C)C3)CC2)c1
The Z score of the first is lower: -0.24 for the first, 1.72 for the second.

Compared with CN1CCN(C)[C@@H](CC(=O)N(C)Cc2nc3ccccc3o2)C1, COC(=O)C[C@@H]1Oc2ccccc2N(Cc2cncs2)C1=O is higher in Z score: 1.27 for the first, 1.32 for the second.

Compared with CCN(CC(=O)NC)C(=O)CN(C)S(=O)(=O)c1ccc(C#N)cc1, CNc1ncccc1CN(C)CCOc1cc(C)ccc1C is higher in Z score: -0.61 for the first, 0.71 for the second.

First: O=C(NCC12CCCCC1C2)C1CCc2nncn2CC1 (stereo unspecified)
Second: C[C@H]1CCCN(C(=O)CS(=O)(=O)c2cccc(Cl)c2)C1
The Z score of the first is lower: 0.49 for the first, 0.8 for the second.

Compared with Cc1cccc(CNC(=O)NCc2cc[nH]n2)c1Br, COC(=O)[C@@H](C)CS(=O)(=O)Nc1cnoc1-c1ccccc1 is higher in Z score: -3.01 for the first, 0.03 for the second.

Going from CS(=O)(=O)NCCc1ccsc1 to CCO[C@H]1CCCN(S(=O)(=O)c2ccc3c(c2)CCC(=O)N3)C1, the Z score falls from 1.21 to 0.22.

First: COc1cc(-c2nc(CN(C)[C@@H](C)c3ccon3)c(C)o2)ccc1F
Second: COc1cccc(-c2nccn2[C@@H](C)Cc2cc(C)n[nH]2)c1OC
The Z score of the first is higher: -0.65 for the first, -0.77 for the second.

First: O=C(COc1ccccc1)Nc1nnc([C@@H]2CCCO2)o1
Second: O=C(c1ccccn1)N1CC(N2C(=O)COC2=O)C1
The Z score of the first is higher: -0.05 for the first, -2.59 for the second.

First: O=C(CCCN1CCC2(CC1)c1ccccc1C[C@@H]2O)c1ccc(F)cc1
Second: COc1ccc(/N=C2/[C@@H](N3CCN(C)CC3)C3(CCCCC3)C(=O)N2c2ccccc2)cc1
The Z score of the first is lower: 0.88 for the first, 3.35 for the second.

Compared with CCn1nc(C)cc1S(=O)(=O)N1CC[C@]23C(=O)N(CC(=O)NCCCOc4cccc(c4)[C@H]12)c1ccccc13, C#CCC(NS(=O)(=O)c1ccc(OC)c(C2(C)NC(=O)NC2=O)c1)c1ccccc1 (stereo unspecified) is lower in Z score: 1.31 for the first, -1.01 for the second.

First: O=C(c1cccs1)N1CCCn2cc(-c3ccccc3F)nc21
Second: Cc1cncnc1C1CCN(C(=O)c2ccc(C#N)nc2)CC1
The Z score of the first is lower: 1.79 for the first, 2.31 for the second.

First: COCC(C)S(=O)(=O)N1CCOC(C2CCC2)C1 (stereo unspecified)
Second: CC(C)=CC1C(C(=O)N2CCC(CN(C)C(C)C)CC2)C1(C)C (stereo unspecified)
The Z score of the first is lower: -1.46 for the first, 1.49 for the second.

For C[C@H]1CN(C(=O)C2(C#N)CCC2)CCN1C(=O)C1(C#N)CCC1, the Z score was 1.6.
